The RNAGym collection of RNA variant scans (doi:10.7554/elife.90254)
The source gives no read counts; variants with many changes may rest on few reads.

B1: LINE1-mini (parent)
chain: GGCAGAGCUCAACACAGCGUGGCAAAGUGGCUGUGGCUAGACUGCC

Variants of: B1
Experiment: self-cleavage, relative activity (ratio to wild type); higher = more cleavage; in vitro, sequencing; the parent is a self-cleaving ribozyme

Variant	self-cleavage
GGCAGAGCUCAACACAGCGUGGAAAAGUUGCUGUGGCUAGACUCCC [C23A G29U G44C]	0.3
GGCAGAGGUCAACAAAUCGUGGCAAAGUGGCUUUGGCUAGACUGCC [C8G C15A G17U G33U]	0.02
GGCAGAGCUCAACACACCGUGGCAAAGUGGCAGUGGAUAGACUGCC [G17C U32A C37A]	0
GGCAGAGCUCAACAAAGCGUGGCAAAGUAGCUGUGGCUAGACCGCC [C15A G29A U43C]	0.06
GGCAGCGCUCAACACAGCGUGACAAAGUGGAUGUGGCUAGACUGCC [A6C G22A C31A]	0.3
GGCUGAGCUCAACACAGCGUGCCAAAGUGGUUGUGGCUAGACUGCC [A4U G22C C31U]	0.07
GGCAGAGCUCAACACAGCGUGGAAAAGUGGCUCUAGCUAGACUGCC [C23A G33C G35A]	0.04
GGCAGAGCUCAACACAGCGUGACAAAUCGGCUGUGGCUAGAUUGCC [G22A G27U U28C C42U]	0.02
GGCAUAGCUCAACACAGUGUGGCAAAGUGGCUGUGGCUCGACUGCC [G5U C18U A39C]	0.05
GGCAGAGCUCAUCACGGCGUGGCAAAGCGGCUGUGGCUAGACUGCC [A12U A16G U28C]	0.12
GGCAGGGCUCAACACAGCGUUGCAAAGUGGCUGUGGCUAGAUUGCC [A6G G21U C42U]	0.02
GGCUGGGCUCAACAAAGCGUGGCAAAGUGGCUGUGGUUAGACUGCG [A4U A6G C15A C37U C46G]	0.01
GGCAGAGCUCAACACAGCGUGGGAAAGUGGAUGUGGCUAGACUGAC [C23G C31A C45A]	0.04
GACACAGCUCAACAUAGCGUGGCAAAGUGGCUGUGGCUUGACUGCC [G2A G5C C15U A39U]	0.04
GGCAGAGAUAAACACAGCGUGGCAAAGUGGUUGUGGCUAGACUGCC [C8A C10A C31U]	0.01
GCCAGAGCUCAUCACAGAGUGGCAAAGUGACUGAGGCUAGACUCCC [G2C A12U C18A G30A U34A G44C]	0.02
GGCAGACCUCAACACAGCGUGGCAAAAUGGCCGUGGCUAGACUGCC [G7C G27A U32C]	0.03
GUCAGAGCUCACCACAUCGUGGCAAAGUGGCUGUGGCUAGACUUCC [G2U A12C G17U G44U]	0.01
GGCAGAGCUCAACACAAAGUGGCAAAGUGGCUGUGACUAGACUGCC [G17A C18A G36A]	0.05

Variant	self-cleavage
GGCCGAGCUCAACUCAGCCUGUCAAAGUGGCUGUGGCUAGACUGCC [A4C A14U G19C G22U]	0.05
GGCAGACCUCGGCACAGCGUGGCAAAGUGGCUGUGGCUAAACUGCC [G7C A11G A12G G40A]	0.02
GGCAGAGCCUAACUCAGCGGGGCAAAGUGGCUGUGGCUAGAGUGCC [U9C C10U A14U U20G C42G]	0.02
GACAAAGCUCAACACAGCGUGGCAAAGUGGGUCUGGCUAGACUGCC [G2A G5A C31G G33C]	0.2
AGCAGAGCUCAACACAGCUUGGCAAAGUGGCUGCGGAUAGACUGCC [G1A G19U U34C C37A]	0.09
GGCAGAGAUCAACACAGCGUGGCAACGUGGCUGUGGCUAGACUGAC [C8A A26C C45A]	0.23
GGCAGAGCUCGAAACACCGUGGCAAAGUAGUUGUGGCUAGACUGCC [A11G C13A G17C G29A C31U]	0.01
GGCAGAGCUCUACACAGAGUGGCAAAGUGGCUGGGGCUAGACUGCC [A11U C18A U34G]	0.02
GGCAGAUCUCAACACAGCGUGGCAAAGUAGCUGUGACUUGACUGCC [G7U G29A G36A A39U]	0.1
GGCAGAGCGCGACACAGCGUGGCAACGUGGCUGUGGCUAGACUGCC [U9G A11G A26C]	0.01
GGCAGAGCGCAACACAGCGUGGCAAAGUUGCUGUGGCUCGACUGCC [U9G G29U A39C]	0.02
GGCAGAGCUCAACAUAGCGUGGCAAAGUGGCUGUGGUUAAACUGCC [C15U C37U G40A]	0.05
GGCACAGCUAAGCACAGCGUGGCAAAGUGGUUGUGGCUAGACUGCC [G5C C10A A12G C31U]	0.02
GCCAGAGCUCAACACAGCGUGGCACUGUGGCUGUGGCUAGAUUGCC [G2C A25C A26U C42U]	0.09
GCCAGUGCUCAACACAGCGUGGCGAAGUGGCUGUGGUUAGACUGCC [G2C A6U A24G C37U]	0.02
GGCAGAGCUCUACACAGCGUGGCGAAGUAGCUGUUGCUAGCCUGCC [A11U A24G G29A G35U A41C]	0.02
GGCAGAGCUAAACGCAGCGUGGCAGAGUGGCUGUGGCUAGACUGCC [C10A A14G A25G]	0.03
GGCUGAGCUCAACACAGCGUCGCAAAGUGGCUGUGGCUAGACUGUC [A4U G21C C45U]	0.11
GGCAGAGCUCAACGCAGCGUGGCAAAGAGGCUGUGGCUAGAGUGCC [A14G U28A C42G]	0.06

Variant	self-cleavage
GACAGAGCUCUACACAACGUGGCAAAGUGGCUGUGGCUAGACUGGC [G2A A11U G17A C45G]	0.03
GACAGAGCGCAACACAGCGUGACAGAGUGGCUGUGGCUAGACUGCA [G2A U9G G22A A25G C46A]	0.32
GGCAGAGCUCAAAACAGCGUGGCAAAUUGGGUGUUGCUAGACUACC [C13A G27U C31G G35U G44A]	0.02
GGCCGUGCUAAACACAGCGUGGCAAAGUGGCUGUAUCUAGACUGCC [A4C A6U C10A G35A G36U]	0.13
GGCAGUGCUCAACACAGCGUGUCAAAGUGGCUGUGACUGGACUGCC [A6U G22U G36A A39G]	1.37
GGCAGUGCUCAAGACAGUCUGGCAAAGUGGCUGUGGUUAGACUGGC [A6U C13G C18U G19C C37U C45G]	0.06
GGCAGAGCUCAACCCAGCGUGGCAAAGUUGCUGUGGCUAGACUGCA [A14C G29U C46A]	0.08
GGCAGAGCUCAGCACAGCGUGGCAAAGGGACUGUGGAUAGACUGCC [A12G U28G G30A C37A]	0.13
GGCAGAGCUCAACACAGCGUGCCAAAGUGUCUGUGGCUAGUAUGGC [G22C G30U A41U C42A C45G]	0.02
GAUAGAGCUCAACACAGCGUGGCAAAGUGGCUGUGGCUUGAAUGCC [G2A C3U A39U C42A]	0.13
GGCAGAGCUCAACAAAGCGUGGCAAAGUCGCUGUAGCUUGACUGGC [C15A G29C G35A A39U C45G]	0.01
GGCAGAGCUCAACACAGCGUAGCAAAAUGGGUGUGCCUAGACUGCC [G21A G27A C31G G36C]	0.03
GGCAGAGCUCAAAACAGCGUGGCAAAGUGGCUUUGGCCUCACUGCA [C13A G33U U38C A39U G40C C46A]	0.02
GGCGGAGCUCAACACAGCGUGGCAAAGUGGCUGUGGCUAUACUGAC [A4G G40U C45A]	0.07
GGCAGAGCUCAACACAGCAUGGCAAAGUGGCCGUGGCUAGACUUCC [G19A U32C G44U]	0.04
AGCAGAGCUCAGCAGAGCGUGUCAAAGUGGCUGUGGCUAGACUGCC [G1A A12G C15G G22U]	0.04
GGCAGAUCUCAGCACAGCGUGGUAAACUGGCUGUUGCUAGACUGUC [G7U A12G C23U G27C G35U C45U]	0.01
GGCAGAGCUCUACACAGCGUGGCAAAGUUGCUGUGUCUAGACUGCC [A11U G29U G36U]	0
